# In the supplement of paper PMC4967469:
# A lower IC50 marks a more sensitive line; fits outside the tested doses are given as limits. The AUC spans the tested range (256-fold, ending at the top dose) of the same fit; it is 1 without any effect and falls as sensitivity rises. For some assays here: A top dose marked as inferred is not printed in the source and was worked back from the curve model. For some assays here: Where an entry number is given, a second screen of the drug exists; the two often differ.
# Tests used:
# Assay in all cases: Viability of human cancer cell lines after 72 h of drug (GDSC screen)
# GNF-2 = compound: NC(=O)c1cccc(-c2cc(Nc3ccc(OC(F)(F)F)cc3)ncn2)c1 [GNF-2]; settings: top dose 1.28 µM; top dose inferred
# Method: (§1)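 Human cancer cell lines in 384-well plates, medium with 10% serum, drug for 72 h over a 256-fold dose range (nine 2-fold or five 4-fold steps up to the top dose). Adherent lines were fixed and stained with the nucleic acid dye Syto60, suspension lines read with resazurin; signal relative to control wells, capped at 0 and 100%. One two-parameter sigmoid per drug and line, fitted in a mixed model over all curves with the slope shared within a line.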
# LFM-A13 = compound: C/C(O)=C(\C#N)C(=O)Nc1cc(Br)ccc1Br [LFM-A13]; settings: top dose 16 µM; top dose inferred
# Method: as §1
# Bicalutamide = compound: CC(O)(CS(=O)(=O)c1ccc(F)cc1)C(=O)Nc1ccc(C#N)c(C(F)(F)F)c1 [Bicalutamide]; settings: top dose inferred
# Method: as §1
# Gemcitabine = compound: Nc1ccn([C@@H]2O[C@H](CO)[C@@H](O)C2(F)F)c(=O)n1 [Gemcitabine]; settings: top dose 1.024 µM
# Method: as §1
# Nilotinib = compound: Cc1cn(-c2cc(NC(=O)c3ccc(C)c(Nc4nccc(-c5cccnc5)n4)c3)cc(C(F)(F)F)c2)cn1 [Nilotinib]; settings: top dose 2 µM
# Method: as §1
# TW-37 = compound: CC(C)c1ccccc1Cc1cc(C(=O)Nc2ccc(S(=O)(=O)c3ccccc3C(C)(C)C)cc2)c(O)c(O)c1O [TW-37]; settings: top dose 5 µM
# Method: as §1
# T0901317 = compound: O=S(=O)(c1ccccc1)N(CC(F)(F)F)c1ccc(C(O)(C(F)(F)F)C(F)(F)F)cc1 [T0901317]; settings: top dose 10.24 µM; top dose inferred
# Method: as §1
# MP470 = compound: S=C(NCc1ccc2c(c1)OCO2)N1CCN(c2ncnc3c2oc2ccccc23)CC1 [MP470]; settings: top dose 20 µM; top dose inferred
# Method: as §1
# KIN001-270 = compound: Cc1ccc(Nc2cc(-c3cccc(N4C(=O)c5ccccc5C4=O)c3)ncn2)cc1NS(C)(=O)=O [KIN001-270]; settings: top dose 20 µM; top dose inferred
# Method: as §1
# AUY922 = compound: CCNC(=O)c1noc(-c2cc(C(C)C)c(O)cc2O)c1-c1ccc(CN2CCOCC2)cc1 [AUY922]; settings: top dose 0.256 µM; top dose inferred
# Method: as §1
# [1] = top dose 1.024 µM, screen: GDSC drug entry 150
# [2] = top dose 10 µM, screen: GDSC drug entry 1502
Cell Line,AUC (GNF-2),IC50 (GNF-2) [µM],AUC (LFM-A13),IC50 (LFM-A13) [µM],AUC (Bicalutamide; [1]),IC50 (Bicalutamide; [1]) [µM],AUC (Bicalutamide; [2]),IC50 (Bicalutamide; [2]) [µM],AUC (Gemcitabine),IC50 (Gemcitabine) [µM],AUC (Nilotinib),IC50 (Nilotinib) [µM],AUC (TW-37),IC50 (TW-37) [µM],AUC (T0901317),IC50 (T0901317) [µM],AUC (MP470),IC50 (MP470) [µM],AUC (KIN001-270),IC50 (KIN001-270) [µM],AUC (AUY922),IC50 (AUY922) [µM]
"NCI-H2081 (small cell lung carcinoma, suspension)",0.989,> 1.28,0.976,> 16,0.989,> 1.02,0.98,> 10,0.657,0.179,0.965,> 2,0.86,4.61,0.963,> 10.2,0.895,> 20,0.984,> 20,0.845,0.202
"SW982 (soft tissue, adherent)",0.985,> 1.28,0.977,> 16,0.984,> 1.02,0.978,> 10,0.084,< 0.004,0.985,> 2,0.38,0.144,0.984,> 10.2,0.983,> 20,0.96,> 20,0.455,0.012
"C2BBe1 (large intestine, adherent)",0.976,> 1.28,0.98,> 16,0.983,> 1.02,0.984,> 10,0.829,0.76,0.955,> 2,0.507,0.327,0.986,> 10.2,0.945,> 20,0.962,> 20,0.626,0.0374
"COR-L88 (small cell lung carcinoma, adherent)",0.984,> 1.28,0.905,> 16,0.984,> 1.02,0.978,> 10,0.906,> 1.02,0.96,> 2,0.718,1.47,0.974,> 10.2,0.719,5.97,0.975,> 20,0.808,0.164
"HCC1187 (breast, suspension)",0.983,> 1.28,0.985,> 16,0.987,> 1.02,0.976,> 10,0.986,> 1.02,0.985,> 2,0.551,,0.969,> 10.2,0.924,> 20,0.975,> 20,0.924,> 0.256
"NAMALWA (Burkitt lymphoma, suspension)",0.991,> 1.28,0.989,> 16,0.991,> 1.02,0.99,> 10,0.187,0.00914,0.991,> 2,0.455,0.241,0.954,> 10.2,0.961,> 20,0.952,> 20,0.619,0.0322
"MN-60 (B-cell leukaemia, suspension)",0.988,> 1.28,0.97,> 16,0.987,> 1.02,0.987,> 10,0.913,> 1.02,0.987,> 2,0.759,1.81,0.963,> 10.2,0.854,16.8,0.964,> 20,0.786,0.115
"D-283MED (medulloblastoma, adherent)",0.981,> 1.28,0.991,> 16,0.991,> 1.02,0.986,> 10,0.405,0.0361,0.991,> 2,0.458,0.242,0.976,> 10.2,0.981,> 20,0.96,> 20,0.808,0.118
"ST486 (Burkitt lymphoma, suspension)",0.985,> 1.28,0.977,> 16,0.981,> 1.02,0.989,> 10,0.278,0.0164,0.903,> 2,0.533,0.379,0.915,> 10.2,0.929,> 20,0.818,9.67,0.546,0.021
"RPMI-8866 (chronic myeloid leukaemia, suspension)",0.988,> 1.28,0.988,> 16,0.987,> 1.02,0.97,> 10,0.396,0.034,0.856,1.42,0.402,0.172,0.912,> 10.2,0.906,> 20,0.932,> 20,0.736,0.0711
"KNS-81-FD (glioma, adherent)",0.98,> 1.28,0.969,> 16,0.978,> 1.02,0.967,> 10,0.844,> 1.02,0.977,> 2,0.544,0.428,0.976,> 10.2,0.926,> 20,0.955,> 20,0.721,0.0861
"MPP-89 (mesothelioma, adherent)",0.972,> 1.28,0.979,> 16,0.972,> 1.02,0.934,> 10,0.77,0.508,0.93,> 2,0.726,1.69,0.965,> 10.2,0.953,> 20,0.982,> 20,0.735,0.0934
"NCI-H720 (lung carcinoid, suspension)",0.946,> 1.28,0.992,> 16,0.992,> 1.02,0.988,> 10,0.986,> 1.02,0.985,> 2,0.538,0.393,0.978,> 10.2,0.981,> 20,0.987,> 20,0.967,> 0.256
"NCI-H1436 (small cell lung carcinoma, suspension)",0.972,> 1.28,0.983,> 16,0.985,> 1.02,0.976,> 10,0.986,> 1.02,0.98,> 2,0.813,3.2,0.978,> 10.2,0.857,20,0.983,> 20,0.868,> 0.256
"MEG-01 (chronic myeloid leukaemia, suspension)",0.783,0.508,0.98,> 16,0.986,> 1.02,0.984,> 10,0.19,0.0082,0.083,< 0.00781,0.39,0.159,0.954,> 10.2,0.923,> 20,0.975,> 20,0.586,0.0271
"LU-165 (small cell lung carcinoma, suspension)",0.988,> 1.28,0.984,> 16,0.988,> 1.02,0.977,> 10,0.858,1.01,0.987,> 2,0.946,> 5,0.986,> 10.2,0.964,> 20,0.934,> 20,0.822,0.174
"UACC-257 (melanoma, adherent)",0.965,> 1.28,0.971,> 16,0.982,> 1.02,0.933,> 10,0.63,0.16,0.977,> 2,0.6,0.629,0.979,> 10.2,0.859,> 20,0.976,> 20,0.698,0.0666
"BB30-HNC (head and neck, adherent)",0.985,> 1.28,0.974,> 16,0.986,> 1.02,0.982,> 10,0.061,< 0.004,0.967,> 2,0.392,0.159,0.974,> 10.2,0.936,> 20,0.92,> 20,0.394,0.00821
"ME-1 (acute myeloid leukaemia, suspension)",0.989,> 1.28,0.953,> 16,0.988,> 1.02,0.987,> 10,0.894,> 1.02,0.967,> 2,0.92,> 5,0.989,> 10.2,0.989,> 20,0.989,> 20,0.849,0.213
"KNS-42 (glioma, adherent)",0.982,> 1.28,0.943,> 16,0.984,> 1.02,0.971,> 10,0.793,0.57,0.982,> 2,0.785,2.59,0.984,> 10.2,0.976,> 20,0.968,> 20,0.872,> 0.256
"BB65-RCC (kidney, adherent)",0.975,> 1.28,0.924,> 16,0.982,> 1.02,0.972,> 10,0.086,< 0.004,0.918,> 2,0.402,0.162,0.98,> 10.2,0.778,9.4,0.965,> 20,0.489,0.0149
